Some of the results follow.

The assay concerns PfSIP2 AP2 domain 1 (GST-tagged). In words: gcPBM binding intensity (ln(normalized median fluorescence intensity)); higher = stronger DNA binding. Put shortly:
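Binding intensity is the highest Masliner-normalised natural-log median intensity over replicate spots in either probe orientation. To obtain it, GST-tagged P. falciparum DNA-binding domains made in E. coli were incubated for 1 h on an Agilent 4 × 180k array of primer-extended double-stranded 36-bp intergenic genomic probes plus negative controls. Detection used Alexa488 anti-GST antibody with scanning at 488 nm.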
Consider “ATAACGATATATGTGCGTACTTATAGAATAAGCAAA [XGTACX_site6743]”, for which the “gcPBM binding intensity (ln)” value came out at 7.07. Regarding “AAAATTATATATTATTGTACATAAAATTTTGACATA [XGTACX_site4886]”, the “gcPBM binding intensity (ln)” value is 6.93. In the case of ATATATCATATTATAGTGCATTTATAATAATATTAT it was 9.33. In the case of “TATTATCTGTAGTGTACACATATTATATAGTACTTT [CACACA_site4582]”, the “gcPBM binding intensity (ln)” value is 7.36. In the case of “ATATATATATATATATGTACATATATGTATACCTTA [XGTACX_site6791]” it was 9.28; in that of “ATAAATACTAGGCACACACACATATATATATATATA [CACACA_site2080]”, 9.33. The same measure for “CAATAGTTCTTATGGGTGCAAACCACATATATATAA [GTGCAC_site9606]”: 11.3; for “TTTATTTATCTGTATACACACTTTAATGAAAAGTTG [CACACA_site5400]”: 6.99. In the case of “ACAAATCTAAGATAGTGTACATTTATATATATATAT [XGTACX_site8740]” it was 9.36. As to TATATATATATATAAGTGCATATAAAAATCGTTCGT, the “gcPBM binding intensity (ln)” value came to 9.51.

“ATTTTTTTTTTTTTTTTTTTTTTTTGGAGAAAGAGA [CACACA_negctrl_site1119]”: the “gcPBM binding intensity (ln)” value is 6.9. Consider “ATATATATATAATAAACACACACATATACATATATG [CACACA_site9145]”, for which the “gcPBM binding intensity (ln)” value stood at 8.68. The same measure for “AATATAAATAAAAACACACACACACCCATATATATA [CACACA_site2267]”: 7.55; for “TTTATATACACACAGAAGAACAGAAATATTATATAT [TGCATGCA_negctrl_site483]”: 7.2.

“AGGAAAAACTTGAATGCATGCGCACATTCTAGTTTG [TGCATGCA_site776]”: the “gcPBM binding intensity (ln)” value was found to be 6.99. As for “TATTATTACGTAATATGTACATATATTTATACCACT [XGTACX_site5918]”, the “gcPBM binding intensity (ln)” value is 7.19. In the case of “AAAAATATATATAACACACACATAATATATATATAT [CACACA_site2537]”, the “gcPBM binding intensity (ln)” value came out at 8.82. The same measure for “TTATAACACATTACATGTACAAATATAAATATATTC [XGTACX_site6503]”: 7; for “AAAAAAAAAAAAAAATGTACAAAAATTACTATAAAA [XGTACX_site7683]”: 7.33. In the case of “TTTTTTTTTGTTTACACACACAAAATATTATATGTA [CACACA_site2470]” it was 6.89; in that of “ATTAGCTACAAACAAAGGCTACCTATAGCAAGAGGG [GTGCAC_negctrl_site33]”, 7. In the case of “TATATATATACATACATACACACATATATATATATA [CACACA_site4109]” it was 9.25; in that of “ATAATTTCTTTTACATGTACAAAATTTGCTTATATG [XGTACX_site5388]”, 7.1. For “ATATATATAATGTGAAGTACATTTTGTTTACATATT [XGTACX_site8405]”, the “gcPBM binding intensity (ln)” value is 7.33. In the case of “TTTACACTTTCCAATAGTACATATTAGAATAATTCT [XGTACX_site7734]” it was 7.26.

For the sequence “TTTATTAAATAATCTCTTTTTATTACATAATAATAA [XGTACX_negctrl_site382]”, the “gcPBM binding intensity (ln)” value worked out at 6.67. Regarding “GGATTATTTATAGGAGTGCATACATATATATATATA [GTGCAC_site9454]”, the “gcPBM binding intensity (ln)” value was determined as 9.49.

With “TAATTTATGGAATATGTGCACTTGCTGATCACTTTT [GTGCAC_site9843]”, the “gcPBM binding intensity (ln)” value was determined as 9.87. In the case of “AATATCTAAATAAAGTGTACTTACCTTATTAATTAT [XGTACX_site2276]” it was 6.95. The same measure for “CCAATACATAGAAACTGTACATTATGCATTATACAC [XGTACX_site3531]”: 7.15; for “AATAAACATAAATACACACACAAAAAAAAAAACATA [CACACA_site4396]”: 7.03. The same measure for “TTTTTTTTTTTTTGATGTACTAAAAAAAATGAGCCT [XGTACX_site8535]”: 7.01. As to “AAAAACAAAATATAATGTACACAATATATGTATATA [XGTACX_site2301]”, the “gcPBM binding intensity (ln)” value was determined as 6.98. Consider “AAATATTACTACACTACATGCAGTTTTAGGTACACT [TGCATGCA_site42]”, for which the “gcPBM binding intensity (ln)” value amounted to 6.95. In the case of “TGTAGTCTGGAGAAGAGTACATAGTATCTGGTAACA [XGTACX_site4944]”, the “gcPBM binding intensity (ln)” value worked out at 7.15. In the case of “TATAGGTAAATGGACACACACATATTTATATTTATA [CACACA_site7683]” it was 7.02; in that of “TAATGTTTTTATATCACACACAAATATTAAATGATT [CACACA_site543]”, 6.82. In the case of “TTATTAGGTGTATAATGTACATATAATATATATATA [XGTACX_site3398]” it was 8.69. The same measure for “ATAGAAGCATCACACTGTACATGGATGAACAGAAAA [XGTACX_site7311]”: 6.86; for “TATAATATAAGGATCACACACAAACAGACATATATA [CACACA_site557]”: 7.02; for “GATATTAAAATATGTAGTACACATATTATATCATAT [XGTACX_site4167]”: 6.95.

As for “TTAAAAATTATGGATACACACATATATATATATATT [CACACA_site2383]”, the “gcPBM binding intensity (ln)” value was determined as 7.24. In the case of “ATAGTTCCTTTTAATACACACAAAAAAAAAAACATG [CACACA_site3415]” it was 7.04; in that of “TTATTATCATCAAATCAAAAAATTCTTTTACCTGTT [CACACA_negctrl_site1348]”, 6.76.

Turning to “TATATATATATATGTAGTACCTATAATATTAAATAC [XGTACX_site6118]”, the “gcPBM binding intensity (ln)” value was 9.16. The same measure for “AAGAAAAGAAACAAAAAAAAAAAGAAATAAAAGGAA [TGCATGCA_negctrl_site171]”: 6.51; for ATCAATAAATAAAATGTGCACATAATATATTAATAC: 8.61.

With “TATGAATGGTTAAGTACACACATATTAATATAGGTA [CACACA_site7606]”, the “gcPBM binding intensity (ln)” value was 7.02. In the case of “AATTTTTTTTTTTTTTTTTTTTATATATGTGTGTGT [XGTACX_negctrl_site129]” it was 7.29; in that of “CTTATAAATAAAAGAAGTACATGTTAGTTCAAGTTA [XGTACX_site4183]”, 7.24. For the sequence “TTGAAGAAAAAAAAATGTACATAAAAAATATATATG [XGTACX_site428]”, the “gcPBM binding intensity (ln)” value stood at 7.21.

For “TTTCATCTCGTCATTTCTTATATAACTATTTTATAC [CACACA_negctrl_site813]”, the “gcPBM binding intensity (ln)” value came out at 7.27. In the case of “ATTATTGTTTATTGATTTTTGTTAAAATAGGAAATT [GTGCAC_negctrl_site181]” it was 6.91. On to “ATTATATTTATTAATATGTATATTTAATTATATTTA [XGTACX_negctrl_site376]”, for which the “gcPBM binding intensity (ln)” value was determined as 6.68.

For the sequence “TTCTTTATTATATGCACACGTACATAAAATATATAT [CACACA_site5157]”, the “gcPBM binding intensity (ln)” value worked out at 7.74. The same measure for “CAAATTTTTTATTAAACACACAAACATATATATATA [CACACA_site5122]”: 9.21; for “AAGTGTAAAAGTTACACACACAAACTTGTCATTTTT [CACACA_site4614]”: 6.78; for “TATAAAAAATATATATATAATATTATATATATATAT [TGCATGCA_negctrl_site260]”: 8.93. In the case of “ATTTTTTTTTTTTTTTGTACGAATAATATGTATGAA [XGTACX_site5318]” it was 7.12; in that of “AAAGGAGGGAATTTTTCTAGGTGTGGAGTGCTACTC [XGTACX_negctrl_site63]”, 7.19; in that of “TCGTCTCAATAATTATAATAAAAAAATTCCTAAGTC [CACACA_negctrl_site338]”, 6.92. On to “ATTTTCCTATTTAGTAGTACTTTTTTCTTTTTTTAA [XGTACX_site5260]”, for which the “gcPBM binding intensity (ln)” value was determined as 7.04.

Consider TTATATTTCACAAATGTGCACAGATACATATATATA, for which the “gcPBM binding intensity (ln)” value came to 9.03.

Take “TTTTTGTTTCATAAATGTACAAAAACAAACATATTT [XGTACX_site5281]”: the “gcPBM binding intensity (ln)” value is 7.02.

In the case of “TTATATGTATATATAGTGCAGAACAAAAGATTATAT [GTGCAC_site9599]”, the “gcPBM binding intensity (ln)” value stood at 7.83. The same measure for “AAACAATTTAGACATACACACAAAAATAATATTATA [CACACA_site384]”: 6.98. The same measure for “CACGAAAATTTGTAGAGTACATATATAATTAATATA [XGTACX_site3808]”: 6.91; for “ATATATATATATATATGTACATATTGTATTATTCAC [XGTACX_site6511]”: 9.47.

In the case of “ATTAAAAAAAAGCTCATCGAAATGTCTTATATAAAT [CACACA_negctrl_site912]”, the “gcPBM binding intensity (ln)” value came to 6.73. The same measure for “CAATTAAACAATTAAACATGCAAAATGATATAATAA [TGCATGCA_site240]”: 6.79.

Take “AAAAAAAAATAGAAATGTACAAATTGTAATAATTCC [XGTACX_site6182]”: the “gcPBM binding intensity (ln)” value was 6.67. In the case of “TATAATAATATTTATTGTACGATTAGATTAATTCAT [XGTACX_site612]” it was 6.83; in that of “GAGCATTACACATATACACACATATATATAAACATA [CACACA_site5515]”, 7.59; in that of “CATATGATATTATTTTGTACTTATTACAAATATGAA [XGTACX_site7929]”, 7.13.

Take “ATATATATATATATTTGTACATAATATATATATGCA [XGTACX_site1795]”: the “gcPBM binding intensity (ln)” value came out at 9.4. The same measure for “ATGTTCTATAAATATGAACACACGACATATTATTTA [CACACA_site1799]”: 6.84. For the sequence “TGTAGTATCAATTTTTGTACATAACACATATGTATA [XGTACX_site613]”, the “gcPBM binding intensity (ln)” value worked out at 6.93. Consider “TATATTTAATTACATGAACACACATTATATATTTTT [CACACA_site8969]”, for which the “gcPBM binding intensity (ln)” value turned out to be 6.95. In the case of “ATATATATATATATATGTACATATTATTCTCATTGT [XGTACX_site6259]” it was 9.18; in that of “TTTATTTTTCCATATGCACACACACCGTATATATAA [CACACA_site8293]”, 7.57. In the case of “AAAACAAACACATTTACACACATAAATAAATCAATT [CACACA_site4122]” it was 7.09. In the case of “ATACATACATACATACGTACATATGTATATATATAT [XGTACX_site8498]” it was 8.83. Consider “TATTCATTCTATAAAACACACAAATATTTTTGTATC [CACACA_site666]”, for which the “gcPBM binding intensity (ln)” value came out at 6.98. The same measure for “GTATATGAATGTTCATGTACATAATAAAATATATAA [XGTACX_site250]”: 6.95; for “AAATTAAAATATAATACACACATAAAAAAAAAATCA [CACACA_site5918]”: 6.94; for “ATAAAATATAAAAACGCACACAATTATAAGGGTGTA [CACACA_site177]”: 6.99. The same measure for “ATATATATATATAAAGTGCAAAAATGAAAGTAAGAC [GTGCAC_site9850]”: 9.25; for “CAAAAAGATAAGGTGTGTACGTATTATAATTTTAAA [XGTACX_site531]”: 7.14.

In the case of “ATTTAATTTTCCAAATGTACTTATATTTTTATGAAA [XGTACX_site6144]”, the “gcPBM binding intensity (ln)” value was found to be 7.05.

Source of the values: the supplement of paper PMC11417369.
